In publication PMC9600267, “The Antibacterial Type VII Secretion System of Bacillus subtilis: Structure and Interactions of the Pseudokinase YukC/EssB” (mBio, 2022):
No constants are given. Whether binding was seen depends on the method and setting. Some binding calls cover weakened binding; strength is not graded here. Where a sequence is shown, tags or fusion partners need not be part of it.

T1: YukE, bacterial two-hybrid fusion (Bacillus subtilis 168) (UniProt C0SP85)
T1 sequence: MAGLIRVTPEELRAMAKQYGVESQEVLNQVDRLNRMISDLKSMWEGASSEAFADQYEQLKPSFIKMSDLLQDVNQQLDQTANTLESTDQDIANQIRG

T2: YukB, bacterial two-hybrid fusion (Bacillus subtilis 168) (UniProt C0SPA7)
T2 sequence: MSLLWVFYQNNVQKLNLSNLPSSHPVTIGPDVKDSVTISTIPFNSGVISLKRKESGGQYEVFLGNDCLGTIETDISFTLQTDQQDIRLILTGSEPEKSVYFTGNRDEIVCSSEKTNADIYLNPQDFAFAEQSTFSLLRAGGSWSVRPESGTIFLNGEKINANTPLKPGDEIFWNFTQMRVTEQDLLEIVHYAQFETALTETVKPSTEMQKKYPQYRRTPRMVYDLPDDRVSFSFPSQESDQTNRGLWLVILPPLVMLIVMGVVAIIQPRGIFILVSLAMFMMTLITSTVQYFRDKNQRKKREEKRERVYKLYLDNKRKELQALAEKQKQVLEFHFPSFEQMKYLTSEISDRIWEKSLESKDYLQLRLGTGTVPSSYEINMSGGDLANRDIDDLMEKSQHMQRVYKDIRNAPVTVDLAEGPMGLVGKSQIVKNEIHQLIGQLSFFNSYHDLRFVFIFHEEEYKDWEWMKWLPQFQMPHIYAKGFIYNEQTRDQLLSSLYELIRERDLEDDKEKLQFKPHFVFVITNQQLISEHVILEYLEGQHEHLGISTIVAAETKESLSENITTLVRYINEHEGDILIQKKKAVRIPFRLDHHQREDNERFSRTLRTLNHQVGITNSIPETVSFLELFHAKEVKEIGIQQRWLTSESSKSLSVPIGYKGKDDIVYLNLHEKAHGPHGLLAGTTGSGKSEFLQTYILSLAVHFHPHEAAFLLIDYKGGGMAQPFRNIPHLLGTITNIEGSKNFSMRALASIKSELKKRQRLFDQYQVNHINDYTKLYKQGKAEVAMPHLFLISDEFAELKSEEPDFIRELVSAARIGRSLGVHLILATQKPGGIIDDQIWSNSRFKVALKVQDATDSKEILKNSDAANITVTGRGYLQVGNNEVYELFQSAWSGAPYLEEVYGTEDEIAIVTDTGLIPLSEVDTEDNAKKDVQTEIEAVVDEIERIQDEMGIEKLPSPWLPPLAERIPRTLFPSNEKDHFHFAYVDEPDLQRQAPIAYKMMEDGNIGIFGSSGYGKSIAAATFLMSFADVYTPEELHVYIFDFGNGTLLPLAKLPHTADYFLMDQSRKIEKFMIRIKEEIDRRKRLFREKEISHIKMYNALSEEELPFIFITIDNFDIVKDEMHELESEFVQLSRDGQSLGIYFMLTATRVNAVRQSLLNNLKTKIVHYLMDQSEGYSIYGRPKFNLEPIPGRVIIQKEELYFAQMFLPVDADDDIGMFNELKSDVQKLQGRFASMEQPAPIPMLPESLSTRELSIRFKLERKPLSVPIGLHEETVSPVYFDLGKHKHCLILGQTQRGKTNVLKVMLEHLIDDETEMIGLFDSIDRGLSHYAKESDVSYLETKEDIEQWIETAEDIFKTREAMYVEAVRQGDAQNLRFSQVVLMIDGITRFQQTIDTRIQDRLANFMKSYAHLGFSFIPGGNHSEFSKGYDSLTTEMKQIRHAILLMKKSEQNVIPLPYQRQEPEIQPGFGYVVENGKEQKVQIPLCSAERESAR

T3: YueB (full length), bacterial two-hybrid fusion (Bacillus subtilis 168) (UniProt O32101)
T3 sequence: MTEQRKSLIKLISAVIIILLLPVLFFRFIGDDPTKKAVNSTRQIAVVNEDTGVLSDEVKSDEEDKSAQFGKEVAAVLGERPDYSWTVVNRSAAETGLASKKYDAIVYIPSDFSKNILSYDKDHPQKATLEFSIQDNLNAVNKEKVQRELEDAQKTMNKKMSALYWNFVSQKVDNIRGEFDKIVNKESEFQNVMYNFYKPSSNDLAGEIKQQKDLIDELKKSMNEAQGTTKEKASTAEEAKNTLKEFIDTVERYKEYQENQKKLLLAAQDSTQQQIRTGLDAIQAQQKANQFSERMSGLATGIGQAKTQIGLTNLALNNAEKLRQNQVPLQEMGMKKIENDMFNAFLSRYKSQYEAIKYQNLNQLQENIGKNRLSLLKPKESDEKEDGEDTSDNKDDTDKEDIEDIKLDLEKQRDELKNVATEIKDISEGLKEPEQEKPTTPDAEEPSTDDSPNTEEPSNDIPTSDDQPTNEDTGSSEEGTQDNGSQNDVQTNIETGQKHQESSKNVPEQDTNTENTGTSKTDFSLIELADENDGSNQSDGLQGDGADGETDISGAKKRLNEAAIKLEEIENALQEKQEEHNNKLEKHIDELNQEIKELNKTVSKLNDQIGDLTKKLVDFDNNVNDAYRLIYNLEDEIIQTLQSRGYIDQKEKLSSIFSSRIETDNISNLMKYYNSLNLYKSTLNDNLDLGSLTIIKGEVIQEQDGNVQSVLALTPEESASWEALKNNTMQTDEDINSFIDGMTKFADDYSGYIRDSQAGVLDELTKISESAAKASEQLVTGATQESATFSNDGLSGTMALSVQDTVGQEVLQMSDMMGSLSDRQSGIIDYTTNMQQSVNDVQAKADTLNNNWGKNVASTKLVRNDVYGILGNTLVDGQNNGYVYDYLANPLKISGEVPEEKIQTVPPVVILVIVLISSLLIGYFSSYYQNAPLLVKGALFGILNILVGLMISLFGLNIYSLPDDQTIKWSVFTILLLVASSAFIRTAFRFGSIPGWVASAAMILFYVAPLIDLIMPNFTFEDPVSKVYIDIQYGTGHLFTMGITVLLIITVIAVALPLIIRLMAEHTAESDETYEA

T4: YukD, bacterial two-hybrid fusion (Bacillus subtilis 168) (UniProt P71071)
T4 sequence: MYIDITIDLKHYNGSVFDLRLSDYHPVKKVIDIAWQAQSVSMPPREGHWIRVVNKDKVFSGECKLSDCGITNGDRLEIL

T5: YueC, bacterial two-hybrid fusion (Bacillus subtilis 168) (UniProt O32100)
T5 sequence: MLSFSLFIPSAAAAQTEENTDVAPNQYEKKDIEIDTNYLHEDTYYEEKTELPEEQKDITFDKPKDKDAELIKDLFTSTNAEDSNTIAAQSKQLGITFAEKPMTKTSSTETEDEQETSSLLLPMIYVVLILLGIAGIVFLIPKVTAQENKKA


What was measured:
Test in all cases: two-hybrid; bacterial two-hybrid (BACTH) in E. coli BTH101; T25 (pKT25/pKNT25) and T18 (pUT18/pUT18C) fusions; spots on LB with X-Gal and IPTG, 25°C, imaged after 48 h
[1] = molecular target: T1, YukE, bacterial two-hybrid fusion (Bacillus subtilis 168)
[2] = molecular target: T2, YukB, bacterial two-hybrid fusion (Bacillus subtilis 168)
[3] = molecular target: T3, YueB (full length), bacterial two-hybrid fusion (Bacillus subtilis 168)
[4] = molecular target: T4, YukD, bacterial two-hybrid fusion (Bacillus subtilis 168)
[5] = molecular target: T5, YueC, bacterial two-hybrid fusion (Bacillus subtilis 168)

| binding [1] | binding [2] | binding [3] | binding [4] | binding [5] | Binder |
| --- | --- | --- | --- | --- | --- |
| binds | – | – | – | – | YukE, bacterial two-hybrid fusion (protein, UniProt C0SP85 1-97) MAGLIRVTPEELRAMAKQYGVESQEVLNQVDRLNRMISDLKSMWEGASSEAFADQYEQLKPSFIKMSDLLQDVNQQLDQTANTLESTDQDIANQIRG |
| – | binds | binds | – | – | YukB, bacterial two-hybrid fusion (protein, UniProt C0SPA7 1-1495) MSLLWVFYQNNVQKLNLSNLPSSHPVTIGPDVKDSVTISTIPFNSGVISLKRKESGGQYEVFLGNDCLGTIETDISFTLQTDQQDIRLILTGSEPEKSVYFTGNRDEIVCSSEKTNADIYLNPQDFAFAEQSTFSLLRAGGSWSVRPESGTIFLNGEKINANTPLKPGDEIFWNFTQMRVTEQDLLEIVHYAQFETALTETVKPSTEMQKKYPQYRRTPRMVYDLPDDRVSFSFPSQESDQTNRGLWLVILPPLVMLIVMGVVAIIQPRGIFILVSLAMFMMTLITSTVQYFRDKNQRKKREEKRERVYKLYLDNKRKELQALAEKQKQVLEFHFPSFEQMKYLTSEISDRIWEKSLESKDYLQLRLGTGTVPSSYEINMSGGDLANRDIDDLMEKSQHMQRVYKDIRNAPVTVDLAEGPMGLVGKSQIVKNEIHQLIGQLSFFNSYHDLRFVFIFHEEEYKDWEWMKWLPQFQMPHIYAKGFIYNEQTRDQLLSSLYELIRERDLEDDKEKLQFKPHFVFVITNQQLISEHVILEYLEGQHEHLGISTIVAAETKESLSENITTLVRYINEHEGDILIQKKKAVRIPFRLDHHQREDNERFSRTLRTLNHQVGITNSIPETVSFLELFHAKEVKEIGIQQRWLTSESSKSLSVPIGYKGKDDIVYLNLHEKAHGPHGLLAGTTGSGKSEFLQTYILSLAVHFHPHEAAFLLIDYKGGGMAQPFRNIPHLLGTITNIEGSKNFSMRALASIKSELKKRQRLFDQYQVNHINDYTKLYKQGKAEVAMPHLFLISDEFAELKSEEPDFIRELVSAARIGRSLGVHLILATQKPGGIIDDQIWSNSRFKVALKVQDATDSKEILKNSDAANITVTGRGYLQVGNNEVYELFQSAWSGAPYLEEVYGTEDEIAIVTDTGLIPLSEVDTEDNAKKDVQTEIEAVVDEIERIQDEMGIEKLPSPWLPPLAERIPRTLFPSNEKDHFHFAYVDEPDLQRQAPIAYKMMEDGNIGIFGSSGYGKSIAAATFLMSFADVYTPEELHVYIFDFGNGTLLPLAKLPHTADYFLMDQSRKIEKFMIRIKEEIDRRKRLFREKEISHIKMYNALSEEELPFIFITIDNFDIVKDEMHELESEFVQLSRDGQSLGIYFMLTATRVNAVRQSLLNNLKTKIVHYLMDQSEGYSIYGRPKFNLEPIPGRVIIQKEELYFAQMFLPVDADDDIGMFNELKSDVQKLQGRFASMEQPAPIPMLPESLSTRELSIRFKLERKPLSVPIGLHEETVSPVYFDLGKHKHCLILGQTQRGKTNVLKVMLEHLIDDETEMIGLFDSIDRGLSHYAKESDVSYLETKEDIEQWIETAEDIFKTREAMYVEAVRQGDAQNLRFSQVVLMIDGITRFQQTIDTRIQDRLANFMKSYAHLGFSFIPGGNHSEFSKGYDSLTTEMKQIRHAILLMKKSEQNVIPLPYQRQEPEIQPGFGYVVENGKEQKVQIPLCSAERESAR |
| – | no binding | – | no binding | binds | YukD, bacterial two-hybrid fusion (protein, UniProt P71071 1-79) MYIDITIDLKHYNGSVFDLRLSDYHPVKKVIDIAWQAQSVSMPPREGHWIRVVNKDKVFSGECKLSDCGITNGDRLEIL |
| – | – | – | – | no binding | YueC, bacterial two-hybrid fusion (protein, UniProt O32100 1-151) MLSFSLFIPSAAAAQTEENTDVAPNQYEKKDIEIDTNYLHEDTYYEEKTELPEEQKDITFDKPKDKDAELIKDLFTSTNAEDSNTIAAQSKQLGITFAEKPMTKTSSTETEDEQETSSLLLPMIYVVLILLGIAGIVFLIPKVTAQENKKA |
